# From the supplement of paper PMC8728848
# The list shows a part of the results.
# B1: FBG5 (Homo sapiens), Q8NI29 (protein)
# chain: MGASVSRGRAARVPAPEPEPEEALDLSQLPPELLLVVLSHVPPRTLLGRCRQVCRGWRALVDGQALWLLILARDHGATGRALLHLARSCQSPARNARPCPLGRFCARRPIGRNLIRNPCGQEGLRKWMVQHGGDGWVVEENRTTVPGAPSQTCFVTSFSWCCKKQVLDLEEEGLWPELLDSGRIEICVSDWWGARHDSGCMYRLLVQLLDANQTVLDKFSAVPDPIPQWNNNACLHVTHVFSNIKMGVRFVSFEHRGQDTQFWAGHYGARVTNSSVIVRVRLS
# Experiments:
# Assay in all cases: glycan array binding signal (z-score within array); higher = stronger binding
# Conditions in all cases: glycan notation: IUPAC condensed, linker removed
# [1] = target: Neu5Ac(a2-3)Gal(b1-3)GlcNAc
# Procedure, shortened: (§1)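 Columns mapping to the same glycan were averaged after glycan names were converted to IUPAC-condensed notation. The data come from 3228 arrays in the Consortium for Functional Glycomics database, limited to those with an available protein sequence. Binding is reported as a within-array Z-score averaged across arrays of one protein sequence and across linkers.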
# [2] = target: Neu5Ac(a2-3)Gal(b1-3)GlcNAc(b1-3)Gal(b1-4)GlcNAc
# Procedure, shortened: as §1
# [3] = target: Neu5Ac(a2-3)Gal(b1-3)GlcNAc6S
# Procedure, shortened: as §1
# [4] = target: Neu5Ac(a2-3)Gal(b1-3)[Fuc(a1-4)]GlcNAc
# Procedure, shortened: as §1
# [5] = target: Neu5Ac(a2-3)Gal(b1-3)[Fuc(a1-4)]GlcNAc(b1-3)Gal(b1-4)[Fuc(a1-3)]GlcNAc
# Procedure, shortened: as §1
# [6] = target: Neu5Ac(a2-3)Gal(b1-3)[Neu5Ac(a2-3)Gal(b1-4)]GlcNAc
# Procedure, shortened: as §1
# [7] = target: Neu5Ac(a2-3)Gal(b1-3)[Neu5Ac(a2-6)]GalNAc
# Procedure, shortened: as §1
# Neu5Ac(a2-3)Gal(b1-4)Glc = target: Neu5Ac(a2-3)Gal(b1-4)Glc
# Procedure, shortened: as §1
# [8] = target: Neu5Ac(a2-3)Gal(b1-4)GlcNAc
# Procedure, shortened: as §1
# [9] = target: Neu5Ac(a2-3)Gal(b1-4)GlcNAc(b1-3)Gal(b1-4)GlcNAc
# Procedure, shortened: as §1
# [10] = target: Neu5Ac(a2-3)Gal(b1-4)GlcNAc(b1-3)Gal(b1-4)GlcNAc(b1-3)Gal(b1-4)GlcNAc
# Procedure, shortened: as §1
# [11] = target: Neu5Ac(a2-3)Gal(b1-4)GlcNAc(b1-3)Gal(b1-4)[Fuc(a1-3)]GlcNAc
# Procedure, shortened: as §1
# [12] = target: Neu5Ac(a2-3)Gal(b1-4)GlcNAc6S
# Procedure, shortened: as §1
# [13] = target: Neu5Ac(a2-3)Gal(b1-4)[Fuc(a1-3)]GlcNAc
# Procedure, shortened: as §1
# [14] = target: Neu5Ac(a2-3)Gal(b1-4)[Fuc(a1-3)]GlcNAc(b1-3)Gal
# Procedure, shortened: as §1
# [15] = target: Neu5Ac(a2-3)Gal(b1-4)[Fuc(a1-3)]GlcNAc(b1-3)Gal(b1-4)GlcNAc
# Procedure, shortened: as §1
# [16] = target: Neu5Ac(a2-3)Gal(b1-4)[Fuc(a1-3)]GlcNAc(b1-3)Gal(b1-4)[Fuc(a1-3)]GlcNAc(b1-3)Gal(b1-4)[Fuc(a1-3)]GlcNAc
# Procedure, shortened: as §1
# [17] = target: Neu5Ac(a2-3)Gal(b1-4)[Fuc(a1-3)]GlcNAc6S
# Procedure, shortened: as §1
# [18] = target: Neu5Ac(a2-3)Gal6S(b1-4)GlcNAc
# Procedure, shortened: as §1
# [19] = target: Neu5Ac(a2-3)Gal6S(b1-4)[Fuc(a1-3)]GlcNAc
# Procedure, shortened: as §1
# Neu5Ac(a2-3)GalNAc = target: Neu5Ac(a2-3)GalNAc
# Procedure, shortened: as §1
# [20] = target: Neu5Ac(a2-3)GalNAc(b1-4)GlcNAc
# Procedure, shortened: as §1
# [21] = target: Neu5Ac(a2-3)[GalNAc(b1-4)]Gal(b1-4)Glc
# Procedure, shortened: as §1
# [22] = target: Neu5Ac(a2-3)[GalNAc(b1-4)]Gal(b1-4)GlcNAc
# Procedure, shortened: as §1
# [23] = target: Neu5Ac(a2-3)[Neu5Ac(a2-6)]GalNAc
# Procedure, shortened: as §1
# [24] = target: Neu5Ac(a2-6)Gal(b1-4)GlcNAc
# Procedure, shortened: as §1
# [25] = target: Neu5Ac(a2-6)Gal(b1-4)GlcNAc(b1-2)Man(a1-3)[Neu5Ac(a2-6)Gal(b1-4)GlcNAc(b1-2)Man(a1-6)]Man(b1-4)GlcNAc(b1-4)GlcNAc
# Procedure, shortened: as §1
# [26] = target: Neu5Ac(a2-6)Gal(b1-4)GlcNAc(b1-3)Gal(b1-4)GlcNAc
# Procedure, shortened: as §1
# [27] = target: Neu5Ac(a2-6)Gal(b1-4)GlcNAc(b1-3)Gal(b1-4)[Fuc(a1-3)]GlcNAc(b1-3)Gal(b1-4)[Fuc(a1-3)]GlcNAc
# Procedure, shortened: as §1
# [28] = target: Neu5Ac(a2-6)Gal(b1-4)GlcNAc6S
# Procedure, shortened: as §1
# Neu5Ac(a2-6)GalNAc = target: Neu5Ac(a2-6)GalNAc
# Procedure, shortened: as §1
# [29] = target: Neu5Ac(a2-6)GalNAc(b1-4)GlcNAc
# Procedure, shortened: as §1
# Neu5Ac(a2-8)Neu5Ac = target: Neu5Ac(a2-8)Neu5Ac
# Procedure, shortened: as §1
# [30] = target: Neu5Ac(a2-8)Neu5Ac(a2-3)Gal(b1-4)Glc
# Procedure, shortened: as §1
# [31] = target: Neu5Ac(a2-8)Neu5Ac(a2-3)[GalNAc(b1-4)]Gal(b1-4)Glc
# Procedure, shortened: as §1
# [32] = target: Neu5Ac(a2-8)Neu5Ac(a2-8)Neu5Ac
# Procedure, shortened: as §1
# [33] = target: Neu5Ac(a2-8)Neu5Ac(a2-8)Neu5Ac(a2-3)Gal(b1-4)Glc
# Procedure, shortened: as §1
# [34] = target: Neu5Ac(a2-8)Neu5Ac(a2-8)Neu5Ac(a2-3)[GalNAc(b1-4)]Gal(b1-4)Glc
# Procedure, shortened: as §1
binder,measurement,setting,value
B1,glycan array binding signal (z-score),[1],-0.161
same,glycan array binding signal (z-score),[2],-0.162
same,glycan array binding signal (z-score),[3],-0.16
same,glycan array binding signal (z-score),[4],-0.208
same,glycan array binding signal (z-score),[5],-0.077
same,glycan array binding signal (z-score),[6],-0.218
same,glycan array binding signal (z-score),[7],-0.112
same,glycan array binding signal (z-score),Neu5Ac(a2-3)Gal(b1-4)Glc,-0.221
same,glycan array binding signal (z-score),[8],-0.245
same,glycan array binding signal (z-score),[9],-0.222
same,glycan array binding signal (z-score),[10],-0.186
same,glycan array binding signal (z-score),[11],-0.031
same,glycan array binding signal (z-score),[12],0.04
same,glycan array binding signal (z-score),[13],-0.231
same,glycan array binding signal (z-score),[14],-0.244
same,glycan array binding signal (z-score),[15],0.252
same,glycan array binding signal (z-score),[16],-0.173
same,glycan array binding signal (z-score),[17],-0.175
same,glycan array binding signal (z-score),[18],-0.137
same,glycan array binding signal (z-score),[19],-0.204
same,glycan array binding signal (z-score),Neu5Ac(a2-3)GalNAc,-0.242
same,glycan array binding signal (z-score),[20],-0.257
same,glycan array binding signal (z-score),[21],-0.203
same,glycan array binding signal (z-score),[22],-0.181
same,glycan array binding signal (z-score),[23],-0.194
same,glycan array binding signal (z-score),[24],-0.219
same,glycan array binding signal (z-score),[25],-0.187
same,glycan array binding signal (z-score),[26],-0.247
same,glycan array binding signal (z-score),[27],-0.137
same,glycan array binding signal (z-score),[28],-0.232
same,glycan array binding signal (z-score),Neu5Ac(a2-6)GalNAc,-0.157
same,glycan array binding signal (z-score),[29],-0.172
same,glycan array binding signal (z-score),Neu5Ac(a2-8)Neu5Ac,-0.224
same,glycan array binding signal (z-score),[30],-0.222
same,glycan array binding signal (z-score),[31],-0.192
same,glycan array binding signal (z-score),[32],-0.251
same,glycan array binding signal (z-score),[33],-0.254
same,glycan array binding signal (z-score),[34],-0.126
